Our source for the binding values is PMC4147323.

Sequences of proteins named here, by UniProt entry; tags and fusion partners are left off.
UniProt P21796: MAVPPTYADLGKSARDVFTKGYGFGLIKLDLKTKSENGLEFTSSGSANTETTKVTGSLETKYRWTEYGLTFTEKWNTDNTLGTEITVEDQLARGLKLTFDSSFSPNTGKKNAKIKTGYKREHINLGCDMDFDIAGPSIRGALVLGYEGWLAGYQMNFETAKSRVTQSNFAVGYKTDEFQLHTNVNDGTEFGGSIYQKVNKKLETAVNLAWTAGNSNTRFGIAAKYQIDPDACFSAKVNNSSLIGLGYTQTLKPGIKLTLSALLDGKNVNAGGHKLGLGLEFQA

The target of test [1] is T1, Never-in mitosis A-related protein kinase 1 (Nek1) (human (endogenous in HK2 and A498)) (UniProt Q96PY6).
T1 sequence: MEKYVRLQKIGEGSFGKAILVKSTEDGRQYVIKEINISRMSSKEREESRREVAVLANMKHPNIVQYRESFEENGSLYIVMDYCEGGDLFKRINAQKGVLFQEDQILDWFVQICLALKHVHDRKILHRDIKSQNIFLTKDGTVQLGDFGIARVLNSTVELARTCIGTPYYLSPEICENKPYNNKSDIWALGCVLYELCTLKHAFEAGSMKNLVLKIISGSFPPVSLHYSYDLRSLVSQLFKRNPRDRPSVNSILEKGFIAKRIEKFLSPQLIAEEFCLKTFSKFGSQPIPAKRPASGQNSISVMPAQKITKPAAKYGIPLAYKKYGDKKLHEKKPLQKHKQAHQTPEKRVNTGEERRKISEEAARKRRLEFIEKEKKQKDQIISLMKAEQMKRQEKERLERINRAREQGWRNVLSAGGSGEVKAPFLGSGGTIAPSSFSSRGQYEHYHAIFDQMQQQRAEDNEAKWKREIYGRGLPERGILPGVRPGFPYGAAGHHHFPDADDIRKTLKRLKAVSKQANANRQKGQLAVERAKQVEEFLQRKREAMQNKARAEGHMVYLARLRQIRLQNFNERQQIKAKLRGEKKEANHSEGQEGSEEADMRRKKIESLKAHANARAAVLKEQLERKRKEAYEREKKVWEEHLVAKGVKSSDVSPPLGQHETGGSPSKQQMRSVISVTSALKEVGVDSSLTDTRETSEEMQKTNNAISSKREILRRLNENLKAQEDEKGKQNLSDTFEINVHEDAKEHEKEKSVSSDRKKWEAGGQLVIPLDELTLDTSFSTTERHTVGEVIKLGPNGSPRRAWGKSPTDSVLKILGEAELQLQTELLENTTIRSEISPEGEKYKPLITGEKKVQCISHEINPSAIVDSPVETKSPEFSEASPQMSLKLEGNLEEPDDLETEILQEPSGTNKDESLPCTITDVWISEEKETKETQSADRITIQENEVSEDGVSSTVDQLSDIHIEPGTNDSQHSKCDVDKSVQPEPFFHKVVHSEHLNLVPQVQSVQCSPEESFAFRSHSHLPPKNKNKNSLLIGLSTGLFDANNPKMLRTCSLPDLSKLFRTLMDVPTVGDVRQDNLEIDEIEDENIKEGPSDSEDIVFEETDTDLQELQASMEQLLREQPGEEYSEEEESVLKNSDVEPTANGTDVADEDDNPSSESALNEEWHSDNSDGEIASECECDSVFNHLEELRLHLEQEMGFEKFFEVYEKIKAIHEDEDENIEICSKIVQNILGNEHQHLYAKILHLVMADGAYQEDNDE
Nature of the test: condition: only HK2 cells treated with MMS (dissociated 1 hour after 0.025% or 0.075% W/V; not re-associated 4 hours after the lethal dose 0.075% W/V); co-IP; HK2 cells treated with MMS for 1 hour (dose series; 0.025% or 0.075% W/V with recovery up to 4 hours), lysates precipitated with anti-Nek1, blotted with anti-VDAC1.

Test [2] has as its target T1, Never-in mitosis A-related protein kinase 1 (Nek1) (human (endogenous in HK2 and A498)). Nature of the test: condition: only A498 cells treated with a higher dose of MMS for 1 hour (dose not given); co-IP; A498 cells treated with a higher dose of MMS for 1 hour (dose not given), lysed, Nek1-VDAC1 complexes analysed by Western blotting as in Fig. 4.
Test [3] shares this target. Description: condition: only HK2 cells treated with H2O2 (soon after 0.01 mM or 0.1 mM; not re-associated after the lethal dose 0.1 mM); co-IP; HK2 cells treated with H2O2 (0.01 mM or 0.1 mM) for the specified times, lysates precipitated with anti-Nek1, blotted with anti-VDAC1.
For test [4] the target is unchanged. Nature of the test: co-IP; clarified HK2 lysates (Lysis 250 buffer, freeze/thaw) precipitated with anti-Nek1 antibodies, blotted with anti-Nek1 or anti-VDAC1; mock-treated cells and cells recovering from a sublethal dose of H2O2 (0.01 mM, 60 min) or MMS (0.025% W/V, 4 hours).
Test [5] shares this target. Nature of the test: co-IP; A498 cells, untreated or treated with lower doses of MMS for 1 hour, lysed, Nek1-VDAC1 complexes analysed by Western blotting as in Fig. 4.

These are yes or no findings as the source states them, for the method shown. Binding seen in cells or lysates may run through a third protein. Some results given as binding are weak or reduced against the parent protein; the word gives no strength.

“voltage-dependent anion channel (VDAC1) (from UniProt P21796 1-283)”: the binding result was “no binding” in test [1]; “no binding” in test [2]; “no binding” in test [3]; “binds” in test [4]; “binds” in test [5].
